Experimental data reported in a compilation of properties of binary mixtures (doi:10.1021/ie8009878).
The densities may have been worked out from excess volumes.

Assay: xn = mol fraction of the nth substance listed
Conditions: 101 kPa

CCCC[n+]1ccccc1C.F[B-](F)(F)F + O
Conditions | mass density [kg/m3]
298.15 K, x2 = 0.0741 | 1199.9
298.15 K, x2 = 0.1008 | 1199
298.15 K, x2 = 0.15 | 1197.3
298.15 K, x2 = 0.2898 | 1191.7
298.15 K, x2 = 0.357 | 1188.3
298.15 K, x2 = 0.427 | 1184.3
298.15 K, x2 = 0.4888 | 1180.1
298.15 K, x2 = 0.6614 | 1163.5
298.15 K, x2 = 0.7167 | 1155.5
298.15 K, x2 = 0.8002 | 1138.5
298.15 K, x2 = 0.8483 | 1124.1
298.15 K, x2 = 0.899 | 1102.2
298.15 K, x2 = 0.9498 | 1066.3
318.15 K, x2 = 0.0694 | 1186.7
318.15 K, x2 = 0.2203 | 1181
318.15 K, x2 = 0.2925 | 1177.9
318.15 K, x2 = 0.3514 | 1175.1
318.15 K, x2 = 0.6173 | 1154.5
318.15 K, x2 = 0.7059 | 1142.8
318.15 K, x2 = 0.7951 | 1125.1
318.15 K, x2 = 0.8508 | 1108.6
318.15 K, x2 = 0.8999 | 1087.8
318.15 K, x2 = 0.9503 | 1053.7

CCCC[n+]1ccccc1C.F[B-](F)(F)F + CCCO
Conditions | mass density [kg/m3]
298.15 K, x2 = 0.1446 | 1178.4
298.15 K, x2 = 0.2848 | 1150.4
298.15 K, x2 = 0.3627 | 1132.2
298.15 K, x2 = 0.4723 | 1102.2
318.15 K, x1 = 0.0191 | 804
318.15 K, x2 = 0.0615 | 1179.2
318.15 K, x2 = 0.1135 | 1170.8
318.15 K, x2 = 0.1856 | 1157.9
318.15 K, x2 = 0.2171 | 1152.3
318.15 K, x2 = 0.2445 | 1147.1
318.15 K, x2 = 0.388 | 1113.7
318.15 K, x2 = 0.4615 | 1093.2
318.15 K, x2 = 0.58 | 1053.6
318.15 K, x2 = 0.7302 | 987.5
318.15 K, x2 = 0.9638 | 821.6

CCCC[n+]1ccccc1C.F[B-](F)(F)F + CCO
Conditions | mass density [kg/m3]
298.15 K, x2 = 0.1755 | 1185.5
298.15 K, x2 = 0.2602 | 1175.5
298.15 K, x2 = 0.3754 | 1158.5
298.15 K, x2 = 0.614 | 1104.3
298.15 K, x2 = 0.7324 | 1058.8
298.15 K, x2 = 0.875 | 963.6
298.15 K, x2 = 0.9453 | 882.7
318.15 K, x2 = 0.1335 | 1171.1
318.15 K, x2 = 0.2173 | 1158.7
318.15 K, x2 = 0.2896 | 1145.8
318.15 K, x2 = 0.3501 | 1134.3
318.15 K, x2 = 0.4186 | 1119.4
318.15 K, x2 = 0.5603 | 1079.7
318.15 K, x2 = 0.9473 | 839

CCCC[n+]1ccccc1C.F[B-](F)(F)F + CCCCO
318.15 K
Conditions | mass density [kg/m3]
x2 = 0.1057 | 1168.6
x2 = 0.2855 | 1128.5
x2 = 0.3872 | 1101.2
x2 = 0.4423 | 1084.5

CCCC[n+]1ccccc1C.F[B-](F)(F)F + CO
Conditions | mass density [kg/m3]
298.15 K, x2 = 0.1439 | 1189.1
298.15 K, x2 = 0.2007 | 1182.9
298.15 K, x2 = 0.2942 | 1171.4
298.15 K, x2 = 0.448 | 1146.3
298.15 K, x2 = 0.4903 | 1138
298.15 K, x2 = 0.6951 | 1077.5
298.15 K, x2 = 0.7904 | 1030.6
298.15 K, x2 = 0.8491 | 989.6
298.15 K, x2 = 0.9468 | 884
318.15 K, x2 = 0.134 | 1176.9
318.15 K, x2 = 0.2144 | 1168.1
318.15 K, x2 = 0.4642 | 1130.8
318.15 K, x2 = 0.5264 | 1117.2
318.15 K, x2 = 0.585 | 1102.2
318.15 K, x2 = 0.669 | 1075
318.15 K, x2 = 0.7765 | 1025
318.15 K, x2 = 0.8507 | 972.7
318.15 K, x2 = 0.9194 | 902.5
318.15 K, x2 = 0.9656 | 836.1
